The supplement of paper PMC11417369
The list shows a part of the results.

What follows are sequences tested on PF3D7_0420300 AP2 domain 1 (GST-tagged) (assay: gcPBM binding intensity (ln(normalized median fluorescence intensity)); higher = stronger DNA binding).
Method in brief: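 Alexa488 anti-GST antibody, scanned at 488 nm, detected GST-tagged P. falciparum DNA-binding domains that had been expressed in E. coli and incubated for 1 h on an Agilent 4 × 180k array. The array carried primer-extended double-stranded 36-bp intergenic genomic probes and negative controls. Binding intensity is the highest Masliner-normalised natural-log median intensity across replicate spots of either orientation of each probe.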

| Sequence | gcPBM binding intensity (ln) |
| --- | --- |
| TATTCTTATATATATACACACACAAAATATCTACAA [CACACA_site8144] | 9.82 |
| TTGCATTGATCAAACATACACACATGGTTAATAAAA [CACACA_site2084] | 9.34 |
| TATTTCTCACTGTATGGTACAGATATAAATTTTTAT [XGTACX_site8776] | 9.12 |
| TAACAAGGTTTATATGCATGCAAACATAACCAAAAA [TGCATGCA_site824] | 9.09 |
| AATGGGTAAACATACACACACACATCTATATTTATA [CACACA_site7025] | 10.1 |
| CTTTGCCTTAAAAAGGAACACACATGCTTTTTTTAG [CACACA_site8219] | 9.22 |
| TACTATATCATTTATTGTACAATATTTCTTCAGAAA [XGTACX_site1008] | 9 |
| TATAAAAGACTAAATATTATAGAAATATAAATATAA [TGCATGCA_negctrl_site237] | 8.98 |
| ATATATATGTATAATCGTACAGTTAACGTATTCTTA [XGTACX_site5649] | 9.26 |
| AAACAGATAAATAAAAGTACACATTAAAAGGTAGCA [XGTACX_site4150] | 9.7 |
| GGATTTTAATGAACACGTACATAAAATTAAATAAAT [XGTACX_site7023] | 8.98 |
| TAATTAATTTCTTTACGTACATAATTAATATATATA [XGTACX_site7372] | 9.14 |
| GGGAGGATAGTTCACAGTACCCAGGAAATCTACGGA [XGTACX_site2553] | 9.1 |
| GGTTCATAATATGGTTGTACATAAATATATATATAT [XGTACX_site7583] | 9.51 |
| TTTATACATTTATATTGTACTAATTCGATTTTATAT [XGTACX_site5424] | 9.34 |
| AAAGAAAAAGAAAAAGAAAAATTAGAATATAAAATA [CACACA_negctrl_site792] | 9.12 |
| AATGATCATATATACACACACACAAAAAAAAAAAAA [CACACA_site4009] | 10 |
| ATAAGAAATGTAACTTGTACATAAGGATATATATTT [XGTACX_site236] | 9.26 |
| TAATAATAAAAAAATAGTACATAAATAAAAATAATA [XGTACX_site4774] | 9.48 |

| Sequence | gcPBM binding intensity (ln) |
| --- | --- |
| CATTTATATAAATACACACACACAAAAAAAAAAAAA [CACACA_site5459] | 9.99 |
| TTTTTTTTTTTAAGTTCACACATAAATTCGATTTAC [CACACA_site5057] | 8.98 |
| ACCGTTTTTGTGTAATGTACAAAATTTCTGACAGTG [XGTACX_site4999] | 9.23 |
| AAAGGAAAATTAAAAAGTACACATTTGAAAAAAAAA [XGTACX_site2724] | 9.23 |
| ATAATTTGTAAAAGGAGTACAAAACCATACTTTTTT [XGTACX_site6076] | 9.08 |
| ATGTATTTAATAAGAACACACATATATTTAATTTAA [CACACA_site5606] | 9.3 |
| TATAAAATAAAAAATAAATATCTATATATATATATA [TGCATGCA_negctrl_site351] | 8.94 |
| ATAAAGCACACCGACACACACATATTTATATTTATA [CACACA_site6620] | 9.79 |
| TTGTGTTATCCTTTTTTAGATCAACTATTTTTATTC [CACACA_negctrl_site145] | 9.34 |
| ATTTATAAAATTAATGCACACATCAGCATTTATAAA [CACACA_site1025] | 9.11 |
| TAAATACATAGATGTACACACATTACAGATGTACAT [CACACA_site4692] | 9.49 |
| ATTTATTTCTTGTTAGTGCACTTTCTTTGGTAAAAT | 9.36 |
| TTAAAATGTTGTAACGTGCACATTTTGTGGAAATCA [GTGCAC_site9559] | 9.07 |
| TTATAATTGTAAGGTAGTACATATAAATCAAATAAT [XGTACX_site7190] | 9.37 |
| TATACAGATGGACACACACACATATATATATATATA [CACACA_site5272] | 9.89 |
| ATACAAACAATTATTTGTACATAAAATTTTTTTTTT [XGTACX_site90] | 9 |
| ATGAATCTTTTAAAAAGTACATGTGAAAAAAATAAA [XGTACX_site49] | 9.01 |
| TTTTTTTGTTAAAAGGTGCTAATATATATAAGTGCT | 9.03 |
| GTCCCTATAAGGGGAACACACATAAATGAATATATA [CACACA_site1024] | 9.21 |

| Sequence | gcPBM binding intensity (ln) |
| --- | --- |
| AAATTTATAAAGAACACACACATATAAATATAAATA [CACACA_site6174] | 9.98 |
| TTATATATTTATATATGTACACATTTTACCATTTTT [XGTACX_site2142] | 9.3 |
| TATATTCATAATATTACACACGTTCATTTATTTTAA [CACACA_site2031] | 9.5 |
| GAGTGAAATATGCAAACACACACGAGAAAAATGTAT [CACACA_site3196] | 9.66 |
| TATGGTTTTAAAAAATGTACGCAAGTGCGTTAATTT [XGTACX_site3945] | 9 |
| AACAACCAAACGCACACACACAAAAAAAAAAATATA [CACACA_site6326] | 9.87 |
| TTATATGCATAAAAAGGTACACATATATAAATAAAT [XGTACX_site6894] | 9.44 |
| ACATTTAAAATTTATGCATGTGGTGTTTTGTATATA [TGCATGCA_site534] | 9.65 |
| TAATAAAATGTACACGCATGCAATAGAATATAAAGT [TGCATGCA_site905] | 9.71 |
| TTTGTGTAGGTGTGTAGTACATATAACTTATAACAT [XGTACX_site7885] | 9.56 |
| ATATTTATATATTGCACACAAAAAAAAAAAAAAATC [CACACA_site1629] | 9.51 |
| TATATATATATGTAATGTACATAAATTTTATACCTT [XGTACX_site6991] | 9.17 |
| TAATAAATAAAAATAGAACACACATATGTTTTTTTT [CACACA_site9185] | 9.39 |
| CAGTAGTATATACTATGTACATATTTATATTATATT [XGTACX_site4964] | 9.22 |
| AAAAAAAAAAAAAAATGTACATATATATAAATAAAA [XGTACX_site5574] | 9.18 |
| AAATATAATTAATGATGTACACTTATAGATATTGAT [XGTACX_site8435] | 9.34 |
| GGGTTAATATTTACTACACACACTTAAAATATGTAT [CACACA_site47] | 9.79 |
| ATGTATTTTTAAAAATATAAATTATGTAACTTGTGA [XGTACX_negctrl_site620] | 9.12 |
| TATTCTCGTTCTCATACACACAAAATATACATACAC [CACACA_site7278] | 9.68 |
